Over roughly 81,000 sequences, “one-hybrid fitness for binding NBS DNA” has its median near -0.1; the highest 2% begin near 0.36. This is one part of the list.

The labels stand for the following.
B1: Caulobacter ParB omega fusion; a variant is named by its letters at X, in order, B8GW30 (parent)
chain: MESVVVGEPGMSEGRRGLGRGLSALLGEVDAAPAQAPGEQLGGSREAPIEILQRNPDQPRRTFREEDLEDLSNSIREKGVLQPILVRPSPDTAGEYQIVAGERAWRAAQRAGLKTVPIMVRELDDLAVLEIGIIENVQRADLNVLEEALSYKVLMEKFERTQENIAQTIGKSXSHVANXMRLLXLPDEVQSYLVSGELTAXHARAIAAAADPVALAKQIIEGGLSVRETEALARKAPNLSAGKSKGGRPPRVKDTDTQALESDLSSVLGLDVSIDHRGSTGTLTITYATLEQLDDLCNRLTRGI

In this test the parent is B1. The experiment in a line: one-hybrid fitness for binding NBS DNA (the Noc-binding site; scaled: cognate 1, non-cognate 0); higher = stronger binding. The note with it: with NBS DNA site. The method in brief:
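Fitness is the rescaled log change in variant-to-wild-type read ratio, measured by Illumina sequencing of plasmids before and after bacterial one-hybrid selection. The scale puts cognate at 1 and non-cognate at 0. Selection of Caulobacter ParB libraries, four specificity codons randomised, took place in E. coli USO with a HIS3 reporter, site 19 bp from the promoter, over 48 hours at 37°C on M9-minus-histidine with 0.1 mM IPTG and 5 mM 3-AT.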
Consider GNNR, for which the “one-hybrid fitness for binding NBS DNA” value was no more than 0.2.
In the case of FTSC it was no more than 0.2.
The result for NYHC reads no more than 0.2.
For TIQC, the “one-hybrid fitness for binding NBS DNA” value was no more than 0.2.
The result for KTKK reads no more than 0.2; that for QPVA, no more than 0.2.
In the case of HVPT it was no more than 0.2.
In the case of SSRP it was no more than 0.2; in that of TISP, no more than 0.2.
Turning to KHNT, the “one-hybrid fitness for binding NBS DNA” value is no more than 0.2.
In the case of CKYT it was no more than 0.2; in that of NCGG, no more than 0.2; in that of AHRC, no more than 0.2.
In the case of DRQL it was no more than 0.2; in that of PDTG, no more than 0.2; in that of QPYA, no more than 0.2.
The result for PQIE reads no more than 0.2; that for PYLG, no more than 0.2.
As to MVPG, the “one-hybrid fitness for binding NBS DNA” value was no more than 0.2.
The result for QYNV reads no more than 0.2; that for PGGR, no more than 0.2.
As for DTFF, the “one-hybrid fitness for binding NBS DNA” value was no more than 0.2.
The result for TFLI reads no more than 0.2; that for HAKM, no more than 0.2; that for PIDR, no more than 0.2.
In the case of KDEM it was no more than 0.2.
For RHLS, the “one-hybrid fitness for binding NBS DNA” value turned out to be 0.303.
In the case of GDEG it was no more than 0.2.
The result for VEQK reads no more than 0.2.
In the case of RMRM it was 0.23.
For PSRP, the “one-hybrid fitness for binding NBS DNA” value was no more than 0.2.
The result for EKKS reads no more than 0.2; that for RCLG, no more than 0.2; that for PDQA, no more than 0.2.
The result for AFRR reads no more than 0.2.
Regarding VRNF, the “one-hybrid fitness for binding NBS DNA” value is no more than 0.2.
The result for AGSS reads no more than 0.2; that for QICL, no more than 0.2.
The result for QCHR reads 0.742; that for YWKR, no more than 0.2; that for LEAD, no more than 0.2.
In the case of TKEV it was no more than 0.2; in that of TTRM, no more than 0.2; in that of NAGL, no more than 0.2.
In the case of SLAN, the “one-hybrid fitness for binding NBS DNA” value was no more than 0.2.
The result for KPPS reads no more than 0.2; that for HPWL, no more than 0.2; that for HVAF, no more than 0.2.
The result for TNVC reads no more than 0.2; that for RQAH, no more than 0.2.
In the case of RDRS, the “one-hybrid fitness for binding NBS DNA” value is no more than 0.2.
In the case of NKLG it was no more than 0.2; in that of EMNA, no more than 0.2.
In the case of LRNC it was no more than 0.2; in that of QLLH, no more than 0.2.
Consider QCLF, for which the “one-hybrid fitness for binding NBS DNA” value is no more than 0.2.
Regarding KVAC, the “one-hybrid fitness for binding NBS DNA” value is no more than 0.2.
In the case of SHLD it was no more than 0.2.
Take NKGG: the “one-hybrid fitness for binding NBS DNA” value was no more than 0.2.
The result for AHEC reads no more than 0.2; that for TISL, no more than 0.2.
In the case of KRQC it was no more than 0.2.
The result for QQSG reads no more than 0.2; that for CEEG, no more than 0.2.
For GMGC, the “one-hybrid fitness for binding NBS DNA” value is no more than 0.2.
The result for WYHR reads no more than 0.2; that for AKWQ, no more than 0.2; that for YNPR, no more than 0.2.
In the case of LRPD it was no more than 0.2.
The result for VHHL reads no more than 0.2; that for PVHW, no more than 0.2; that for ITGH, no more than 0.2.
With QAMR, the “one-hybrid fitness for binding NBS DNA” value stood at 0.45.
Take QLSP: the “one-hybrid fitness for binding NBS DNA” value is no more than 0.2.
In the case of MHRD it was no more than 0.2.
The result for RWLC reads no more than 0.2.

The record behind these values is a collection of fitness landscapes (doi:10.1016/j.celrep.2020.107928).
